The other results are listed elsewhere or left out.

For the assay, the system named is T1, C. trachomatis L2/434/Bu expressing GFP (CTL2-GFP).
T1 construct: L2/434/Bu GFP intracellular growth in HeLa cells
Set-up: species or system HeLa; C. trachomatis total inclusion area by high-content imaging, normalised to DMSO. The note with it: total inclusion area; 28.5 h, 10 µM; inhibitor. An outline of the steps: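 Bulk GFP and resorufin signals were read first. Wells were then fixed, stained with Hoechst and imaged to detect GFP inclusions and host nuclei. MICs followed the previously described calculation.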
`O=C(/C=C/c1cn(-c2ccccc2)nc1-c1cccnc1)c1ccc(-c2ccccc2)cc1` [CBK263213]: the “% of control remaining” value is given as 95.3052. Consider `COc1ccc(C(C)(C)C)cc1S(=O)(=O)NC1CC(C)(C)NC(C)(C)C1` [CBK267865], for which the “% of control remaining” value amounted to 104.177.

With `CC1(C(=O)O)NC(c2ccccc2O)C2C(=O)N(c3ccccc3[N+](=O)[O-])C(=O)C21` (centres unmarked) [CBK264979], the “% of control remaining” value stood at 99.8657. `N#Cc1ccc(CSc2nnc(COc3ccccc3)n2Cc2ccco2)cc1` [CBK267539]: the “% of control remaining” value is on record as 111.514. Regarding `O=C(O)C1CC(=O)N(c2cccc3ccccc23)C1` (centres unmarked) [CBK286902], the “% of control remaining” value stood at 124.651. Then `O=C(NCC1(c2ccccc2)CCCC1)c1ccc(NC(=O)C2COc3ccccc3O2)cc1` (centres unmarked) [CBK266558], with 87.8814. Then `CS(=O)(=O)NC1CCN(S(=O)(=O)c2cc(Cl)cc(Cl)c2)CC1` [CBK306082], with 51.6434; and `OCc1cccc(-c2cncc(N3CCN(CCN4CCCC4)CC3)n2)c1` [CBK066136], with 97.5243. Then `Cc1cccc(OCC(=O)N2CCN(Cc3ccccn3)CC2)c1` [CBK134023G], with 92.1061; and `O=c1n(Cc2ccncc2)nc(C(F)(F)F)c2cccn12` [CBK283966], with 104.695; and `O=C(O)c1ccc(NS(=O)(=O)c2ccc3ccccc3c2)cc1` [CBK034053], with 99.7592. With `CC1CCc2nn(CCNC(=O)c3cccs3)c(=O)cc2C1` (centres unmarked) [CBK284483], the “% of control remaining” value came out at 107.671.

With `Cc1sc2nc(C(C)N(C)Cc3cc[nH]n3)[nH]c(=O)c2c1C` (centres unmarked) [CBK306275], the “% of control remaining” value was 45.4066.

Turning to `OC(CSc1ccccc1)CN1CCN(C(c2ccccc2)c2ccccc2)CC1` (centres unmarked) [CBK074683], the “% of control remaining” value stood at 84.2456. Turning to `Cc1nc(C)n(CC2CCCN(Cc3ccccc3C#N)C2)n1` (centres unmarked) [CBK305085], the “% of control remaining” value turned out to be 82.2244. Then `COCCNS(=O)(=O)c1cc(OCC(N)=O)c(C)cc1Cl` [CBK266461], with 89.3235. Then `CCC(=O)N1CCC(NC(=O)N(CCc2ccccn2)Cc2ccccc2)CC1` [CBK171898], with 62.9102. Then `O=C(NCc1ccccc1)c1ccccc1NS(=O)(=O)c1ccccc1F` [CBK113881], with 81.4124; and `CCc1ocnc1C(=O)NC1CCN(c2ncccc2C#N)CC1` [CBK306935], with 77.9978. Turning to `Fc1ccc(-c2cncc(NCc3ccncc3)n2)cc1Cl` [CBK065343], the “% of control remaining” value was found to be 130.644. Then `CC(=O)N1CCN(c2ccc(NC(=O)c3cccc4c(Br)cccc34)cc2Cl)CC1` [CBK269624], with 90.2011; and `N#Cc1ccc(NC(=O)CCn2cnnn2)cc1` [CBK269832], with 56.8286. Then `COc1ccc(Br)cc1CN(CCc1ccc2c(c1)OCO2)Cc1cccnc1` [CBK263327G], with 82.5964; and `O=C(CN1C(=O)S/C(=C\c2ccc(Cl)cc2)C1=O)Nc1cc([N+](=O)[O-])ccc1O` [CBK262396], with 104.721. Turning to `CC(=O)Nc1cccc(C(=O)O)c1Cl` [CBK038814], the “% of control remaining” value is 77.4915.

For `O=C(NC[C@H]1C[C@@H]2CC[N@]1C[C@@H]2CN1CCN(c2ncccn2)CC1)Nc1ccsc1` [CBK289117], the “% of control remaining” value came to 84.7277.

With `CC(NC(=O)N1CCCN(Cc2ccccn2)CC1)c1cnn(C)c1` (centres unmarked) [CBK307537], the “% of control remaining” value is listed as 56.3169.

`Cc1nc(S)nc(O)c1Cc1ccc(C(=O)O)o1` [CBK266284]: the “% of control remaining” value turned out to be 89.2888. In the case of `COC(=O)[C@H]1CN(C(=O)C2CC(=O)N(C)C2)C[C@@H]1c1ccc(F)cc1` (some centres unmarked) [CBK283521], the “% of control remaining” value amounted to 108.325.

As to `COc1ccc(NC(=O)C(C)n2nc(C(=O)O)c3ccccc3c2=O)cc1` (centres unmarked) [CBK295322], the “% of control remaining” value is given as 67.9421. With `Cc1ccccc1C(=O)Nc1cccc(-c2nnc(SCC(=O)c3ccc(Cl)cc3)n2C)c1` [CBK264053], the “% of control remaining” value worked out at 108.347.

As for `Cc1cc(CC(=O)NCCCn2ccnc2C(C)C)on1` [CBK307270], the “% of control remaining” value worked out at 38.6189. `N#C/C(=C\c1ccc(-c2ccc(C(=O)O)cc2)o1)C(=O)NCc1ccco1` [CBK263322]: the “% of control remaining” value is 100.809. Then `N#Cc1ccnc(N2CCN(CC(=O)NCC(F)(F)F)CC2)c1` [CBK305042], with 101.007; and `CC1c2ccsc2CCN1C(=O)CC(NC(N)=O)c1cccc(Br)c1` (centres unmarked) [CBK305635], with 38.1657. Turning to `Nc1cccc(-c2nc(NC(=O)Cc3ccccc3)cnc2-c2ccc(F)cc2)c1` [CBK037550], the “% of control remaining” value came out at 119.268. Consider `O=C1CSC2c3ccccc3C(=O)N2c2ccccc21` (centres unmarked) [CBK113670], for which the “% of control remaining” value is on record as 98.3329. Then `O=C(Nc1ccc(C(F)(F)F)cc1)C1=C(O)CN(c2ccc(Cl)cc2)C1=O` [CBK017603], with 93.5875; and `COc1ccccc1-c1ccc(C(=O)N(C)CCN(C)C)c(N(C)C)n1` [CBK106075], with 87.9627.

As for `O=C(NC1CCCOC1)c1cnn(-c2ccc(F)cc2)c1` (centres unmarked) [CBK283248], the “% of control remaining” value is 105.078. For the compound `CN(C)CCCNC(=O)C1CCN(c2nc3c(-c4ccccc4F)csc3c(=O)[nH]2)CC1` [CBK215438], the “% of control remaining” value is on record as 90.2763. Regarding `CC(C)(CO)Cn1c(=O)[nH]c2ncc(-c3ccco3)nc21` [CBK064721], the “% of control remaining” value is given as 73.6092.

Turning to `c1csc(-c2nccnc2OCC2COc3ccccc3O2)c1` (centres unmarked) [CBK107063], the “% of control remaining” value is given as 94.8218. Then `N#Cc1ccc(-c2cnc(N)c(-c3ccc(C(=O)N4CCOCC4)cc3)n2)cc1` [CBK064067T], with 80.4831; and `NC(=O)C1(N2CCCCC2)CCN(C2CC(=O)N(Cc3ccc(N4CCCC4=O)cc3)C2=O)CC1` (centres unmarked) [CBK266598], with 127.812; and `O=C(NC1CCC1)c1cn2cc(-c3cccs3)n(CC3CC3)c(=O)c2n1` [CBK306863], with 87.2204. With `COc1ccccc1NC(CC(=O)c1ccccc1)C(=O)O` (centres unmarked) [CBK287190], the “% of control remaining” value worked out at 112.644. `CC(C)N1CCC[C@@H]2CN(C(=O)c3cccc(C(F)(F)F)c3)C[C@@H]21` [CBK285525]: the “% of control remaining” value is 104.344. In the case of `CS(=O)(=O)Nc1ccc(C(=O)Nc2ccc(S(=O)(=O)N3CCOCC3)cc2)cc1` [CBK268379], the “% of control remaining” value came to 84.0474. For the compound `Cc1ccc(C2(C)CC(C)(C)N(C(=O)CSc3nnc[nH]3)c3ccccc32)cc1` (centres unmarked) [CBK073918], the “% of control remaining” value was 56.6205.

These data come from paper PMC12040169 (PLOS Biology, 2025).
